# Data: PubChem BioAssay (NCI)
# “And” between values parts separate entries of the source, which are not always exact repeats. Equal entries are not always repeated.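 The compound was tested at five concentrations on cells cultured in 96-well plates, with a 48-hour exposure period. At the GI50, growth is halved. At the TGI there is no net growth.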 The source made the active and inactive calls.
# Assays:
# Assay in all cases: DTP human tumour cell line panel, 48 h
# SF-295 CNS = tested on: SF-295 CNS
# HL-60(TB) leukemia = tested on: HL-60(TB) leukemia
# T-47D breast = tested on: T-47D breast
# A549 NSCLC = tested on: A549 NSCLC
# NCI-H522 lung = tested on: NCI-H522 lung
# SW-620 colon = tested on: SW-620 colon
# SF-268 CNS = tested on: SF-268 CNS
# M14 melanoma = tested on: M14 melanoma
# MCF7 breast = tested on: MCF7 breast
# MDA-MB-435 = tested on: MDA-MB-435
# HCC-2998 colon = tested on: HCC-2998 colon
# SN12C renal = tested on: SN12C renal
# HOP-62 NSCLC = tested on: HOP-62 NSCLC
# SNB-19 CNS = tested on: SNB-19 CNS
# A498 renal = tested on: A498 renal
# RXF 393 renal = tested on: RXF 393 renal
# SNB-75 CNS = tested on: SNB-75 CNS
# UO-31 renal = tested on: UO-31 renal
# OVCAR-5 ovarian = tested on: OVCAR-5 ovarian
# 786-0 renal = tested on: 786-0 renal
# U251 CNS = tested on: U251 CNS
# RPMI-8226 leukemia = tested on: RPMI-8226 leukemia
# COLO 205 colon = tested on: COLO 205 colon
# HCT-116 colon = tested on: HCT-116 colon
# NCI-H226 lung = tested on: NCI-H226 lung
# ACHN renal = tested on: ACHN renal
# K-562 leukemia = tested on: K-562 leukemia
# PC-3 prostate = tested on: PC-3 prostate
# HOP-92 NSCLC = tested on: HOP-92 NSCLC
# MDA-N = tested on: MDA-N
# UACC-62 melanoma = tested on: UACC-62 melanoma
compound,measurement,setting,value
CCOC(=O)Oc1cc2c(c(OC)c1OC)-c1ccc(SC)c(=O)cc1[C@@H](NC(C)=O)CC2,TGI,SF-295 CNS,329 nM
same,TGI,HL-60(TB) leukemia,326 nM
same,GI50,T-47D breast,> 100 µM
same,TGI,T-47D breast,> 100 µM
same,TGI,A549 NSCLC,> 100 µM
same,TGI,NCI-H522 lung,90.9 nM
same,TGI,SW-620 colon,> 100 µM
same,TGI,SF-268 CNS,> 100 µM
same,TGI,M14 melanoma,> 100 µM
same,TGI,MCF7 breast,> 100 µM
same,TGI,MDA-MB-435,3.03 nM
same,TGI,HCC-2998 colon,835 nM
same,TGI,SN12C renal,> 100 µM
same,TGI,HOP-62 NSCLC,> 100 µM
same,TGI,SNB-19 CNS,> 100 µM
same,TGI,A498 renal,648 nM
same,TGI,RXF 393 renal,972 nM
same,TGI,SNB-75 CNS,> 100 µM
same,TGI,UO-31 renal,> 100 µM
same,GI50,OVCAR-5 ovarian,inactive
same,TGI,OVCAR-5 ovarian,> 100 µM
same,TGI,786-0 renal,> 100 µM
same,TGI,U251 CNS,60.2 nM
same,TGI,RPMI-8226 leukemia,> 100 µM
same,TGI,COLO 205 colon,164 nM and 22.9 nM
same,TGI,HCT-116 colon,1110 nM
same,TGI,NCI-H226 lung,22.4 nM
same,TGI,ACHN renal,> 100 µM
same,TGI,K-562 leukemia,> 100 µM
same,TGI,PC-3 prostate,> 100 µM
same,TGI,HOP-92 NSCLC,2350 nM
same,TGI,MDA-N,11 nM
same,TGI,UACC-62 melanoma,> 100 µM
